Data published in patent US20230322928A1, “TREATMENT METHODS USING CTLA-4 AND PD-1 BISPECIFIC ANTIBODIES” (MedImmune, LLC, priority 2022, published 2023).

What was measured:
advanced clear-cell RCC = experiment: Phase 1 study: antitumor activity in RCC expansion cohorts; type: in vivo, human; conditions: for ORR: First line RCC (with clear cell component); for CRs, IMDC: Favorable / CRs, IMDC: Intermediate/poor / CRs / Disease control rate: First line RCC
Description: (§1) The primary endpoint was OR, which is commonly used in oncology studies evaluating subjects with advanced solid tumors, including RCC or NSCLC. The primary objective for the squamous NSCLC expansion cohort was to evaluate the safety and tolerability of MEDI5752 in subjects with advanced solid tumors when combined with chemotherapy.

nonsquamous NSCLC = experiment: Phase 1 study: antitumor activity in non-squamous NSCLC expansion cohorts (with carboplatin/pemetrexed); type: in vivo, human; conditions: First line Non-squamous NSCLC
Description: as §1
PD-L1 status will be assessed in subjects who have provided archival or fresh tumor biopsies. For the NSCLC expansion cohorts, PD-L1 positive is defined as baseline PD-L1 expression with tumor cell ≥1% and PD-L1 negative is defined as baseline PD-L1 expression with tumor cell <1%.

[1] = Phase 1 study: adverse events in RCC cohorts; type: in vivo
[2] = Phase 1 study: adverse events in NSCLC cohorts; type: in vivo
[3] = 500 mg with Carboplatin and Pemetrexed, N = 33
[4] = 750 mg with Carboplatin and Pemetrexed, N = 72
[5] = 750 mg with Carboplatin and Taxane, N = 18
[6] = 1500 mg with Carboplatin and Pemetrexed, N = 20
[7] = MEDI5752 1500 mg + carboplatin/pemetrexed (n = 20)
[8] = Pembrolizumab + carboplatin/pemetrexed (n = 21)

## MEDI5752: anti-PD-1/CTLA-4 bispecific antibody; light chain SEQ ID NO:1 and heavy chain SEQ ID NO:2 (PD-1), light chain SEQ ID NO:3 and heavy chain SEQ ID NO:4 (CTLA-4)
[3]
  Subjects with at least one MEDI5752-related AE Leading to Discontinuation: 9.1%
  Subjects with at least one MEDI5752-related SAE: 18.2%
[4]
  Subjects with at least one MEDI5752-related AE Leading to Discontinuation: 16.7%
  Subjects with at least one MEDI5752-related SAE: 23.6%
[5]
  Subjects with at least one MEDI5752-related AE Leading to Discontinuation: 11.1%
  Subjects with at least one MEDI5752-related SAE: 16.7%
[6]
  Subjects with at least one MEDI5752-related AE Leading to Discontinuation: 75%
  Subjects with at least one MEDI5752-related SAE: 55%
Monotherapy 225 mg, N = 10
  Subjects with at least one MEDI5752-related AE Leading to Discontinuation: 0
  Subjects with at least one MEDI5752-related SAE: 20%
Monotherapy 500 mg, N = 38
  Subjects with at least one MEDI5752-related AE Leading to Discontinuation: 26.3%
  Subjects with at least one MEDI5752-related SAE: 18.4%
Monotherapy 750 mg, N = 40
  Subjects with at least one MEDI5752-related AE Leading to Discontinuation: 40%
  Subjects with at least one MEDI5752-related SAE: 45%
Monotherapy 1500 mg, N = 39
  Subjects with at least one MEDI5752-related AE Leading to Discontinuation: 56.4%
  Subjects with at least one MEDI5752-related SAE: 43.6%
Monotherapy, All, N = 178
  Subjects with at least one MEDI5752-related AE Leading to Discontinuation: 38.8%
  Subjects with at least one MEDI5752-related SAE: 34.8%
Advanced clear-cell RCC; MEDI5752 500 mg (n = 33)
  ORR: 15 (45.5) n (%)
  CRs: 2 (6.1) n (%)
  Disease control rate: 23 (69.7) n (%)
Advanced clear-cell RCC; MEDI5752 750 mg (n = 32)
  ORR: 15 (46.9) n (%)
  CRs: 3 (9.4) n (%)
  Disease control rate: 28 (87.5) n (%)
Advanced clear-cell RCC; MEDI5752 500 mg
  CRs, IMDC: Favorable: 2 (16.7) n (%)
  CRs, IMDC: Intermediate/poor: 0
Advanced clear-cell RCC; MEDI5752 750 mg
  CRs, IMDC: Favorable: 1 (12.5) n (%)
  CRs, IMDC: Intermediate/poor: 2 (8.3) n (%)
Nonsquamous NSCLC; MEDI5752 1500 mg + carboplatin/pemetrexed
  Median PFS, PD-L1 <1%: 13.4 months
Nonsquamous NSCLC; [7]
  Disease control rate: 17 (85.0) n (%)
  Median DOR (95% CI): 20.5 (4.1-NE) months
  Median OS: 25.3 months
  ORR: 10 (50.0) n (%)
[1]; Dose Expansion 500 mg (n = 33)
  Deaths due to TRAE: 0 n
[1]; Dose Expansion 750 mg (n = 32)
  Deaths due to TRAE: 0 n
[2]; Non-squamous NSCLC randomised cohort, MEDI5752 1500 mg + CTx (n = 20)
  Deaths due to TRAE (related to MEDI5752, pembrolizumab, and/or CTx): 0 n
[2]; Non-squamous NSCLC, MEDI5752 500 mg + CTx, one patient
  Cause of death due to TRAE: ^One patient treated with MEDI5752 500 mg + CTx died due to febrile neutropenia.
[2]; Non-squamous NSCLC, MEDI5752 750 mg + CTx, four patients
  Cause of death due to TRAE: ‡One patient treated with MEDI5752 750 mg + CTx died due to pneumonitis, two due to febrile neutropenia, and one due to septic shock.
[2]; Squamous NSCLC, MEDI5752 750 mg + CTx, one patient
  Cause of death due to TRAE: ^^One patient treated with MEDI5752 750 mg + CTx died due to sepsis of respiratory origin.

## Pembrolizumab [reference compound]
Nonsquamous NSCLC; Pembrolizumab + carboplatin/pemetrexed
  Median PFS, PD-L1 <1%: 9 months
Nonsquamous NSCLC; [8]
  Disease control rate: 20 (95.2) n (%)
  Median DOR (95% CI): 9.9 (2.8-NE) months
  Median OS: 16.5 months
  ORR: 10 (47.6) n (%)
[2]; Non-squamous NSCLC, pembrolizumab + CTx, one patient
  Cause of death due to TRAE: †One patient treated with pembrolizumab + CTx died due to febrile neutropenia.

Like-named read-outs stand apart in the source and are kept apart here.
